Data as given in publication PMC4336329 (PLoS ONE, 2015).
About 2,200 (0.71%) of roughly 310,000 compounds showed an effect of 50% or more. The effect is printed as a negative number. Some of the results follow.

biological target: human ether-à-go-go-related gene (hERG) potassium channel (human, UniProt Q12809); test: primary screen, population patch clamp on CHO cells stably expressing hERG
Sequence (Q12809 whole entry, looked up): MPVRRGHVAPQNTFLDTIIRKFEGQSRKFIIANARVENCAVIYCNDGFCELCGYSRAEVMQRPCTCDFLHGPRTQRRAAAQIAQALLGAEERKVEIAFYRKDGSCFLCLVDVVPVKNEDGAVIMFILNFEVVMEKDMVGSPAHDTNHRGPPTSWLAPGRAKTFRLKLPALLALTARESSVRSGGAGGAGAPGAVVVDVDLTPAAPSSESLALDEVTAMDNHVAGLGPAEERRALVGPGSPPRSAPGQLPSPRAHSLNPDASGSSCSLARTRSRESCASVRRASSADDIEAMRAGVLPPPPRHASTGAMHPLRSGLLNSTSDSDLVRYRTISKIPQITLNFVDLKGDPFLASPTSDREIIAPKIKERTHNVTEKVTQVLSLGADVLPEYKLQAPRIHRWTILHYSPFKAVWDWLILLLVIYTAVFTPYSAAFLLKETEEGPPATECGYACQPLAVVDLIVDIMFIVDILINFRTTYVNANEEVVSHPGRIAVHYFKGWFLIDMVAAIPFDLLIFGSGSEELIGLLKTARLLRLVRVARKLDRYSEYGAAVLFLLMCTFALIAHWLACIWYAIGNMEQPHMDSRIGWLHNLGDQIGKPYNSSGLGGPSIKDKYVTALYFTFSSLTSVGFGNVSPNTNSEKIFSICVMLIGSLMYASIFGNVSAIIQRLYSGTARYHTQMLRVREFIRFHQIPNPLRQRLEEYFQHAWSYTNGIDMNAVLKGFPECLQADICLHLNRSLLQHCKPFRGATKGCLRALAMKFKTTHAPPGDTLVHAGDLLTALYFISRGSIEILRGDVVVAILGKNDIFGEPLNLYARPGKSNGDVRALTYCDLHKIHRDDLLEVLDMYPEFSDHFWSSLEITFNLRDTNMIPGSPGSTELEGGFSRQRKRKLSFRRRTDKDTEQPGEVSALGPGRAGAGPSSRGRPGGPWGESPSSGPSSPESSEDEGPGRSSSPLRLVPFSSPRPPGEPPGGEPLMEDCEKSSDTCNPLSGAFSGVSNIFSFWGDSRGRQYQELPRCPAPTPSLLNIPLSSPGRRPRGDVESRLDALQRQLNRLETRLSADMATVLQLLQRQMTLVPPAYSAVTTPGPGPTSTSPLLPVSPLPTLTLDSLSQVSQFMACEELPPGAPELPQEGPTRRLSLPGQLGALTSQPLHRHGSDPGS

SMILES	hERG current change (%, negative = inhibition) at 1uM [%]
CC(C)NS(=O)(=O)c1ccc(OCC(=O)N2CCN(Cc3ccccc3)CC2)cc1	9.08
Cc1ccc(-n2c(SCC(=O)NCC3CCCO3)nc3n[nH]c(C)c3c2=N)cc1Cl (centres unmarked)	3.14
CCOC(=O)C(O)(c1cn(C)c2ccccc12)C(F)(F)F (centres unmarked)	15.8
Cc1ccc(/C(O)=C2/C(=O)C(=O)N(CCN3CCOCC3)C2c2ccccn2)cc1 (centres unmarked)	15.7
CC(=O)c1ccc2c3c(cccc13)C(=O)N(c1c(C)nn(C)c1C)C2=O	12.6
CC(=O)c1ccc(N2C(=NC(=O)C3CCCCC3)SC3CS(=O)(=O)CC32)cc1 (centres unmarked)	13.1
CN(C)C=O.CNc1nc2[nH]c(=O)c3c(c2s1)OC(N)=C(C#N)C3c1ccccc1 (centres unmarked)	7.98
COc1ccc(Cl)cc1S(=O)(=O)N1CCN(CC(=O)C(C)(C)C)CC1	6.11
CC(=O)NCCNC(=O)c1ccc(CSc2ccc(Cl)cc2)cc1	2
CCOC(=O)c1c(C)[nH]c(C)c1C(=O)COc1ccc(NC(=O)c2ccco2)cc1	10.9
CC(=O)c1cc2c(cc1N/C(=N/S(=O)(=O)c1ccc(C)cc1)c1ccccc1)OCO2	13.4
O=C(Nc1ccc(F)cc1)C(c1ccccc1)N1CCN(CC(=O)N2CCCC2)CC1 (centres unmarked)	-45.5
CC(=O)N1CCN(CC(=O)NC(=O)Nc2ccc3c(c2)OCCO3)CC1	8.03
CC(C)(C)c1ccc(C(=O)NCC(=O)OCc2ccc([N+](=O)[O-])cc2)cc1	-3.27
C#CCOCCOCCOCCNc1nc(N2CCN(C(=O)[C@H]([C@@H](C)O)n3cc(CCCC[NH3+])nn3)CC2)nc(N2CCN(C(=O)[C@H](CCCC[NH3+])n3cc(CCCC)nn3)CC2)n1.[Cl-]	14.3
COc1cc(NS(=O)(=O)c2ccc3c(c2)n(C)c(=O)n3C)cc(OC)c1	5.69
O=C(COC(=O)/C=C/C(=O)OCC(=O)NC12CC3CC(CC(C3)C1)C2)NC12CC3CC(CC(C3)C1)C2	17
CC[C@H](C)[C@H](NC(N)=O)C(=O)NCCc1ccc(OC)c(OC)c1	9.44
Cc1cc(C(=O)COC(=O)c2ccco2)c(C)n1Cc1ccco1	11.7
CCCCOC(=O)Nc1ccc(S(=O)(=O)Nc2nc(C)cc(C)n2)cc1	13.5
COCC(=O)N(Cc1cc2ccccc2[nH]c1=O)c1ccccc1OC	11
CS(=O)(=O)Cc1ccc(C(=O)N2CCCC2c2cccs2)cc1 (centres unmarked)	13.7

SMILES	hERG current change (%, negative = inhibition) at 1uM [%]
COc1ccc(NC(=O)CCNC(=O)c2ccccc2Cl)cc1OC	-1.1
NS(=O)(=O)c1ccc(NC(=O)CSc2nnc(-c3cnccn3)n2-c2ccccc2)cc1	8.31
Nc1ccccc1N1CCOCC1	10.4
O=[N+]([O-])c1ccc2[nH]c(O)c(N=NC(=S)NCC3CCCO3)c2c1 (centres unmarked)	5.35
Nc1ccc(Sc2cc(Cl)nc(N)n2)cc1	5.49
Oc1oc(-c2ccc(Br)cc2)nc1C=Nc1ccc(Br)cn1	9.89
CCOc1ccc(NC(=O)CN2C(=O)C3CCCN3C2=O)cc1 (centres unmarked)	7.85
CCOP(=O)(OCC)C(Nc1cc(Cl)cc(Cl)c1)c1cccc(O)c1 (centres unmarked)	7.45
O=C(NCCC1=CCCCC1)c1cccc(S(=O)(=O)N2CCCCC2)c1	-3.33
COC(=O)c1sc2ncccc2c1OCc1ccc(Cl)cc1Cl	2.33
CCn1cc(CNC(=O)c2c(-c3c(Cl)cccc3Cl)noc2C)c(C)n1	8.31
CC(C)N(C)S(=O)(=O)c1ccc(NC(=O)C2=COCCO2)cc1	12.9
CN(CC(=O)Nc1ccc(Cl)c(Cl)c1)C(=O)C12CC3CC(CC(C3)C1)C2	7.66
O=C(NC1CCNCC1)C1CCCCC1	10.4
Cc1ccc(NC2CCCN(C(=O)c3cn4cccc(C)c4n3)C2)cc1C (centres unmarked)	1.16
NN(CCO)C(=S)Nc1ccc(Cl)cc1	10.7
COc1ccccc1-c1cc(-c2ccccc2)nc(SCC(=O)O)c1C#N	14.8
C[C@H]1CN=C(N(C)C)N1CCc1ccc(F)cc1	3.31
CC(C)c1ccc(C(C)NCCS(=O)(=O)c2ccc(Br)cc2)cc1 (centres unmarked)	14.7
COc1ccc(C(=O)CSc2nnc(CNc3ccc(C)cc3C)o2)cc1	10.2
Cc1c(NS(=O)(=O)c2ccc3c(c2)NC(=O)CC(=O)N3)cccc1[N+](=O)[O-]	16.1
O=C(O)c1cc(S(=O)(=O)N2CCCCC2)ccc1N1CCCCC1	5.64

SMILES	hERG current change (%, negative = inhibition) at 1uM [%]
O=C(Nc1cccc(-c2ccc(F)cc2)c1)C1CCCN(Cc2cccnc2)C1 (centres unmarked)	6.67
Cc1ccc(/C=C/C(=O)NCc2cccs2)c(C)c1	13.7
Cl.O=C(O)C1CCN(Cc2cccnc2)CC1	14.1
COc1ccccc1N1CCN(C(CNC(=O)C2CCCCC2)c2cccnc2)CC1 (centres unmarked)	5.78
COc1ccc(C2SCCN2S(=O)(=O)c2ccccc2)cc1OC (centres unmarked)	11
O=C(Nc1cc2c(cc1Cl)OCCCO2)c1ccc(F)cc1	6.35
CCC(C)c1ccc(NC(=O)NCc2cccnc2)cc1 (centres unmarked)	2.16
O=C(O)C(=O)O.O=C(c1ccccc1)c1ccc(OCCCN2CCCCC2)cc1	-30.4
CCNC(=O)C(C)Oc1ccc(Cl)cc1Cl (centres unmarked)	12.3
Cc1ccc(S(=O)(=O)N(CC(=O)N/N=C/c2cccc(Cl)c2)c2cccc3cccnc23)cc1	2.6
O=C(CCn1cccc1)NCCc1ccc(Cl)cc1	13.7
Cc1ccc(S(=O)(=O)Cn2nnnc2C(C)N2CCN(C(=O)c3ccco3)CC2)cc1 (centres unmarked)	-9.64
O=C(CCCC(=O)N(CC(=O)NC1CCCC1)Cc1ccccc1)Nc1ccccn1	4.48
O=C(CCN1C(=O)/C(=C/c2ccccc2Cl)SC1=S)Nc1ccccn1	5.66
CCCC(=O)NC(c1cccs1)c1cc(Cl)c2cccnc2c1O (centres unmarked)	3.81
Cc1cccc(-n2cnc(C(=O)NC3CCCCCC3)c2)n1	3.68
O=C(O)c1cccc(-n2cccc2/C=C2/NC(=O)N(c3cccc(Cl)c3)C2=O)c1	5.88
O=C(Nc1ccn(Cc2ccc(F)cc2)n1)c1ccncc1	21.1
CC1CCC(NC(=O)COC(=O)c2n[nH]c(=O)c3ccccc23)CC1 (centres unmarked)	-1.34
C/C(=C/C(=O)N1CCN(C)CC1)C(=O)O	5.2
O=C(Nc1ccc2c(c1)OCCO2)NC1CCCCC1	-1.47
CNC(=O)c1cc(Cl)c(OC)c(OC)c1	12.2

SMILES	hERG current change (%, negative = inhibition) at 1uM [%]
FC(F)(F)c1nnc(N2CCN(c3ccc(Cl)cc3)CC2)s1	13
COc1ccc(Cl)cc1NC(=O)CN(C)C(=O)c1cc2c(F)cccc2s1	7.74
Cc1ccc2c(c1)nnn2C1CCN(S(=O)(=O)c2ccc(C(=O)O)cc2)CC1	13.1
CCOC(=O)C1CCN(CCC(=O)Nc2cccc(Cl)c2C)CC1	4.5
CC(c1nccs1)N(C)c1nc2nonc2nc1N(C)C (centres unmarked)	6.15
CCN(CC)S(=O)(=O)c1ccc(N/N=C/c2cccnc2)nc1	-2.46
CC(=O)n1cc([C@H]2C=C(C(=O)N3CCN(Cc4ccc5c(c4)OCO5)CC3)O[C@@H](OCCCCO)C2)c2ccccc21	-1.56
Cc1nc(S(=O)(=O)c2ccc(Br)cc2)nc2c1CCC2	10.5
COC(=O)Cn1cnc2c(oc3ccccc32)c1=O	11.1
C#CC[N+](C)(C)CCCCCCCCCC.[Br-]	-0.39
Cc1cccc(C)c1OCc1nc2ccccc2c(=O)n1/N=C/c1c[nH]c2ccccc12	9.22
C[C@H](NC(=O)c1[nH]cnc1C(=O)Nc1ccc(CNC(=O)OC(C)(C)C)cc1)C(=O)OCc1ccccc1	4.09
O=C1NC(=O)c2cc([N+](=O)[O-])cc3cccc1c23	10.3
CCCc1[nH]n(-c2ccc([N+](=O)[O-])cc2)c(=O)c1C=NCCc1ccc(OC)c(OC)c1	4.23
CCOc1cc(C(C(=O)NCC2CCCO2)N(C(=O)Cn2nnc3ccccc32)c2ccccc2C(C)=O)ccc1O (centres unmarked)	9
O=C(c1ccc(S(=O)(=O)c2ccccc2Cl)c([N+](=O)[O-])c1)N1CCCCCC1	-0.441
O=C(c1cc(-c2ccc(Cl)cc2Cl)on1)N1CCN(C(=O)c2ccco2)CC1	-10.6
O=C(O)COc1ccc(C(=O)Cc2ccc3c(c2)OCCCO3)c(O)c1	9.52
Cc1ccc(NS(=O)(=O)c2ccc(C(=O)NCCCN3CCOCC3)cc2)cc1	3.25
C=CCC(NCc1ccco1)c1ccc(OC)cc1 (centres unmarked)	19.8
